# PubChem BioAssay (NCATS)
# Inconclusive means that the source gave no clear call. Such entries were picked first, then a sample of the others. A potency beside an inconclusive call is a rough fit, not a confirmed value. Active and inactive are the calls of the source. Unless noted, calls come from the whole dose curve; as a rule, active = well fitted inhibition curve with a large enough effect; inconclusive = small, poorly fitted or top-dose-only effect; inactive = no such curve, though single readings can be large or run the other way.
# How the values were obtained:
# [1] = target: Aldehyde dehydrogenase, mitochondrial (Homo sapiens) (UniProt P05091); experiment: qHTS for Inhibitors of the Aldehyde Dehydrogenase Family (ALDH2) Confirmatory screens (AID 2061303; active = well fitted inhibition curve with a large enough effect; inconclusive = small, poorly fitted or top-dose-only effect; inactive = no such curve, though single readings can be large or run the other way; title and protocol of this record describe different tests; note: nearly all actives have a fitted effect of over 45% in size; for activity change, negative = inhibition: % is set by controls: 0 for no effect and ±100 for the full control effect); conditions: ALDH inhibition qHTS; activity change, negative = inhibition: at 45.4 µM (top of the series)
# [2] = qHTS for Inhibitors of the Aldehyde Dehydrogenase Family (ALDH1A2, ALDH1A3, ALDH2, ALDH3A1) (AID 2061307); conditions: ALDH inhibition qHTS; activity change, negative = inhibition: at 50.3 µM (top of the series) unless noted; note: nearly all actives have a fitted effect of over 50% in size; for activity change, negative = inhibition: % is set by controls: 0 for no effect and ±100 for the full control effect; for potency: test system not described further here
# [3] = target: Retinaldehyde dehydrogenase 3 (Homo sapiens) (UniProt P47895); experiment: qHTS for Inhibitors of the Aldehyde Dehydrogenase Family (ALDH1A3) Confirmatory screens (AID 2061311); conditions: ALDH inhibition qHTS; activity change, negative = inhibition: at 46 µM (top of the series); series mostly up to 46 µM; note: nearly all actives have a fitted effect of over 60% in size
# [4] = target: Retinal dehydrogenase 2 (Homo sapiens) (UniProt O94788); experiment: qHTS for Inhibitors of the Aldehyde Dehydrogenase Family (ALDH1A2) Confirmation screens (AID 2061314); conditions: ALDH1A2 enzyme inhibition qHTS confirmation; activity, negative = inhibition: at 45.9 µM (top of the series) unless noted; series mostly up to 45.9 µM; note: nearly all actives have a fitted effect of over 65% in size; for activity, negative = inhibition: % is set by controls: 0 for no effect and ±100 for the full control effect
# [5] = target: Aldehyde dehydrogenase 1A1 (Homo sapiens) (UniProt P00352); experiment: qHTS for Inhibitors of the Aldehyde Dehydrogenase Family (ALDH1A1) Confirmatory screens (AID 2061316); conditions: ALDH inhibition qHTS; activity change, negative = inhibition: at 47.3 µM (top of the series); series mostly up to 47.3 µM; note: nearly all actives have a fitted effect of over 65% in size; for activity change, negative = inhibition: % is set by controls: 0 for no effect and ±100 for the full control effect
# [6] = target: Retinaldehyde dehydrogenase 3 (Homo sapiens) (UniProt P47895); experiment: qHTS for Inhibitors of the Aldehyde Dehydrogenase Family (ALDH1A3) Primary screen (AID 2061315); conditions: ALDH inhibition qHTS; activity change, negative = inhibition: at 56 µM (top of the series) unless noted;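 for activity change, negative = inhibition: plate controls were DMSO vehicle for no effect and reference inhibitor for full effect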
# Potency is the fitted concentration of half-maximal effect; tags give direction and shape of the fitted curve.
Compound,Potency [1],Potency [2],Potency [3],Potency [4],Potency [5],Potency [6],"activity, negative = inhibition [4]"
Cc1ccc2nc3sc(C(=O)N4CCN(C5CCN(C)CC5)CC4)cc3cc2c1,"inconclusive: 22.5 µM [inhibitor, partial curve, poor fit]","inconclusive: 15.9 µM [inhibitor, partial curve]","inconclusive: 22.5 µM [inhibitor, partial curve, poor fit]",inactive,active: 12.7 µM,,
CC1=C2CC3C(CCC3(C)O)C(C)(O)CC2OC1=O (stereo not given),inactive,"inconclusive: 22.5 µM [inhibitor, partial curve]","inconclusive: 28.3 µM [inhibitor, single point]",inactive,inactive,,
COc1cc(Nc2nc(-c3ccncc3)nc3ccccc23)ccc1N1CCN(C)CC1,inactive,"inconclusive: 0.603 µM [inhibitor, full curve, poor fit]","inconclusive: 28.3 µM [inhibitor, partial curve]","inconclusive: 14.2 µM [inhibitor, partial curve]","inconclusive: 12.7 µM [inhibitor, partial curve, poor fit]","inconclusive: 20 µM [inhibitor, partial curve, poor fit]",
COc1ccc(C(=O)N(Cc2ccccc2)Cc2ccco2)c(O)c1,"inconclusive: 28.3 µM [inhibitor, partial curve, poor fit]","inconclusive: 25.2 µM [inhibitor, single point]",active: 14.2 µM,active: 25.2 µM,"inconclusive: 17.9 µM [inhibitor, partial curve]",,
CCOc1ccccc1-c1nnc2n1N=C(c1cccc(OC)c1)CS2,inactive,"inconclusive: 12.7 µM [inhibitor, partial curve]",inactive,inactive,"inconclusive: 11.3 µM [inhibitor, partial curve]",,
O=C(C1OC1/C=C/c1ccc2c(c1)OCO2)N1CCCCC1 (stereo not given),"inconclusive: 20.1 µM [inhibitor, partial curve, poor fit]",inactive,"inconclusive: 25.2 µM [inhibitor, partial curve]",inactive,"inconclusive: 20.1 µM [inhibitor, partial curve]","inconclusive: 12.6 µM [inhibitor, partial curve]",
N#Cc1nc(Nc2ccc(F)cc2)nc(NC2CCCC2)n1,"inconclusive: 25.1 µM [inhibitor, partial curve]",active: 3.16 µM,"inconclusive: 12.7 µM [inhibitor, partial curve, poor fit]","inconclusive: 5.04 µM [inhibitor, full curve]","inconclusive: 28.2 µM [inhibitor, partial curve, poor fit]",,
COc1ccc(C2Nc3ccccc3C(=O)N2Cc2cccnc2)cc1COc1ccc(NC(C)=O)cc1 (stereo not given),active: 15.8 µM,"inconclusive: 10 µM [inhibitor, full curve]","inconclusive: 17.9 µM [inhibitor, partial curve]",active: 10.1 µM,"inconclusive: 4.47 µM [inhibitor, full curve]",,
Cc1ccc(CN(C)c2ncnc3ccc(-c4ccc(C#N)n4C)cc23)o1,"inconclusive: 7.94 µM [inhibitor, full curve]",active: 3.16 µM,active: 22.4 µM,"inconclusive: 10.1 µM [inhibitor, partial curve]",active: 12.7 µM,,
CCc1cc(N2CCOC(c3ccc4cc(OC)ccc4c3)C2)nc(C)n1 (stereo not given),inactive,"inconclusive: 14.1 µM [inhibitor, full curve, poor fit]",inactive,inactive,inactive,,
CNc1oc(-c2c[nH]c3ccccc23)nc1C#N,"inconclusive: 14.2 µM [inhibitor, partial curve, poor fit]",active: 11.3 µM,"inconclusive: 17.9 µM [inhibitor, partial curve]",inactive,"inconclusive: 11.3 µM [inhibitor, partial curve]",,
Cc1ccc(OCCn2c(CCNC(=O)c3cccc(C(F)(F)F)c3)nc3ccccc32)cc1,"inconclusive: 25.2 µM [inhibitor, partial curve, poor fit]",inactive,inactive,inactive,inactive,,
Cc1cc(C2N=C(Nc3nc4ccccc4o3)NC3=C2C(=O)CCC3)n[nH]1 (stereo not given),"inconclusive: 14.2 µM [inhibitor, partial curve]","inconclusive: 15.9 µM [inhibitor, partial curve, poor fit]","inconclusive: 28.3 µM [inhibitor, single point]","inconclusive: 12.7 µM [inhibitor, partial curve]","inconclusive: 12.7 µM [inhibitor, partial curve]",,
O=C1CCCC2=C1C1(CCC1)N=C(Nc1nc3ccccc3o1)N2,"inconclusive: 12.7 µM [inhibitor, partial curve, poor fit]","inconclusive: 28.2 µM [inhibitor, single point]",active: 12.7 µM,active: 7.98 µM,inactive,,
COc1ccc(C2Nc3ccccc3C(=O)N2Cc2ccccc2)cc1COc1ccc(NC(=O)c2ccccc2)cc1 (stereo not given),inactive,active: 1.59 µM,inactive,"inconclusive: 12.7 µM [inhibitor, partial curve]","inconclusive: 25.2 µM [inhibitor, partial curve]",,
CNC(=O)C1CCN(c2nc(-c3ccc(Br)cc3)cs2)CC1,"inconclusive: 31.6 µM [inhibitor, partial curve, poor fit]",active: 12.6 µM,inactive,"inconclusive: 2.82 µM [inhibitor, single point]","inconclusive: 28.3 µM [inhibitor, single point]",,
COc1ccc(-c2ccn(CC[C@](C)(C(=O)NO)S(C)(=O)=O)c(=O)c2)c(F)c1,active: 7.94 µM,"inconclusive: 14.1 µM [inhibitor, full curve, poor fit]",active: 7.98 µM,active: 5.65 µM,active: 2.52 µM,"inconclusive: 10 µM [inhibitor, partial curve, poor fit]",
COc1ccc(C2Nc3ccccc3C(=O)N2Cc2ccc(Cl)cc2)cc1COc1ccc(NC(C)=O)cc1 (stereo not given),active: 3.98 µM,active: 2.25 µM,active: 3.55 µM,active: 12.7 µM,"inconclusive: 25.2 µM [inhibitor, partial curve]",inactive,
COc1ccc(Nc2cc(O)c3ncccc3c2)cc1,"inconclusive: 22.4 µM [inhibitor, partial curve, poor fit]","inconclusive: 35.5 µM [inhibitor, single point]",active: 0.0357 µM,inactive,inactive,"inconclusive: 0.355 µM [inhibitor, full curve, poor fit]",
COc1ccc(C2=NS(=O)(=O)N(C)C(C(=O)Nc3ccc(OC(F)(F)F)cc3)=C2)cc1,"inconclusive: 15.8 µM [inhibitor, partial curve]",active: 7.94 µM,"inconclusive: 11.2 µM [inhibitor, partial curve, poor fit]",inactive,"inconclusive: 7.26 µM [inhibitor, partial curve]",,
c1ccc(CN(Cc2ccccc2)Cc2nnc(-c3cc4ccccc4[nH]3)s2)cc1,active: 4 µM,active: 11.2 µM,"inconclusive: 25.2 µM [inhibitor, partial curve]","inconclusive: 1.78 µM [inhibitor, full curve, poor fit]","inconclusive: 6.34 µM [inhibitor, full curve, poor fit]",,
Cc1nc(C2=NC(c3ccccc3Cl)C3=C(CCCC3=O)N2)cs1 (stereo not given),inactive,inactive,"inconclusive: 25.2 µM [inhibitor, single point]",,"inconclusive: 14.2 µM [inhibitor, partial curve]",,inconclusive: -32.8% [inhibitor]
CC(C)c1ccccc1-c1nc(NCC2CCN(c3cccnc3)CC2)c2ccccc2n1,inactive,inactive,"inconclusive: 22.5 µM [inhibitor, partial curve, poor fit]",,"inconclusive: 12.7 µM [inhibitor, partial curve]",,inconclusive: -32.9% [inhibitor]
Nc1ccc(-c2ccc(NC(=O)c3cccs3)cn2)cc1,"inconclusive: 25.2 µM [inhibitor, partial curve, poor fit]","inconclusive: 8.91 µM [inhibitor, full curve, poor fit]","inconclusive: 25.2 µM [inhibitor, partial curve]","inconclusive: 0.501 µM [inhibitor, full curve, poor fit]","inconclusive: 20.1 µM [inhibitor, partial curve, poor fit]",,
CN1CCN(c2ccc(NC(=O)c3cccs3)cn2)CC1,"inconclusive: 5.65 µM [inhibitor, partial curve, poor fit]","inconclusive: 3.57 µM [inhibitor, full curve]",active: 22.5 µM,active: 12.7 µM,"inconclusive: 10.1 µM [inhibitor, partial curve]",,
Cc1occc1-c1ccc2ncnc(NCc3ncc[nH]3)c2c1,"inconclusive: 12.7 µM [inhibitor, partial curve]","inconclusive: 10.1 µM [inhibitor, partial curve]",active: 4 µM,"inconclusive: 2.52 µM [inhibitor, partial curve]","inconclusive: 5.65 µM [inhibitor, partial curve]",,
